Data from the supplement of paper PMC11876631.
Residue numbers refer to the chain shown, from its start. Names and notes keep the numbering of the source. ± gives the standard deviation of the averaged measurements. Laboratory Escherichia coli strains with one amino-acid change in an essential protein, pooled on minimal glucose agar with carbenicillin or gentamicin at twice the control MIC (plus kanamycin and chloramphenicol for the plasmids), 48 h. Fold change of barcode share against drug-free plates; higher = less susceptible. Active = above 20 in both replicates (the paper's putatively resistant). '<' = one read or none on drug, '>' = one read or none on a drug-free plate. Shares are relative, so most strains fall below 1 when a few take over. Listed are strains with at least 15 reads on both drug-free plates, and hits; most hits rest on fewer reference reads. Replicate rank correlation about 0.5. Edits are read from barcodes.

B1: glmS I181Q (protein)
chain: MCGIVGAIAQRDVAEILLEGLRRLEYRGYDSAGLAVVDAEGHMTRLRRLGKVQMLAQAAEEHPLHGGTGIAHTRWATHGEPSEVNAHPHVSEHIVVVHNGIIENHEPLREELKARGYTFVSETDTEVIAHLVNWELKQGGTLREAVLRAIPQLRGAYGTVIMDSRHPDTLLAARSGSPLVQGLGMGENFIASDQLALLPVTRRFIFLEEGDIAEITRRSVNIFDKTGAEVKRQDIESNLQYDAGDKGIYRHYMQKEIYEQPNAIKNTLTGRISHGQVDLSELGPNADELLSKVEHIQILACGTSYNSGMVSRYWFESLAGIPCDVEIASEFRYRKSAVRRNSLMITLSQSGETADTLAGLRLSKELGYLGSLAICNVPGSSLVRESDLALMTNAGTEIGVASTKAFTTQLTVLLMLVAKLSRLKGLDASIEHDIVHGLQALPSRIEQMLSQDKRIEALAEDFSDKHHALFLGRGDQYPIALEGALKLKEISYIHAEAYAAGELKHGPLALIDADMPVIVVAPNNELLEKLKSNIEEVRARGGQLYVFADQDAGFVSSDNMHIIEMPHVEEVIAPIFYTVPLQLLAYHVALIKGTDVDQPRNLAKSVTVE
B2: ftsW I124D (protein)
chain: MRLSLPRLKMPRLPGFSILVWISTALKGWVMGSREKDTDSLIMYDRTLLWLTFGLAAIGFIMVTSASMPIGQRLTNDPFFFAKRDGVYLILAFILAIITLRLPMEFWQRYSATMLLGSIILLMDVLVVGSSVKGASRWIDLGLLRIQPAELTKLSLFCYIANYLVRKGDEVRNNLRGFLKPMGVILVLAVLLLAQPDLGTVVVLFVTTLAMLFLAGAKLWQFIAIIGMGISAVVLLILAEPYRIRRVTAFWNPWEDPFGSGYQLTQSLMAFGRGELWGQGLGNSVQKLEYLPEAHTDFIFAIIGEELGYVGVVLALLMVFFVAFRAMSIGRKALEIDHRFSGFLACSIGIWFSFQALVNVGAAAGMLPTKGLTLPLISYGGSSLLIMSTAIMMLLRIDYETRLEKAQAFVRGSR
B3: ftsW F300W (protein)
chain: B2 chain with D124I, F300W
B4: ftsW I124P (protein)
chain: B2 chain with D124P
B5: argC V75D (protein)
chain: MLNTLIVGASGYAGAELVTYVNRHPHMNITALTVSAQSNDAGKLISDLHPQLKGIVDLPLQPMSDISEFSPGVDDVFLATAHEVSHDLAPQFLEAGCVVFDLSGAFRVNDATFYEKYYGFTHQYPELLEQAAYGLAEWCGNKLKEANLIAVPGCYPTAAQLALKPLIDADLLDLNQWPVINATSGVSGAGRKAAISNSFCEVSLQPYGVFTHRHQPEIATHLGADVIFTPHLGNFPRGILETITCRLKSGVTQAQVAQVLQQAYAHKPLVRLYDKGVPALKNVVGLPFCDIGFAVQGEHLIIVATEDNLLKGAAAQAVQCANIRFGYAETQSLI
B6: argC I302W (protein)
chain: B5 chain with D75V, I302W
B7: argC I302D (protein)
chain: B5 chain with D75V, I302D
B8: gltX V186A (protein)
chain: MKIKTRFAPSPTGYLHVGGARTALYSWLFARNHGGEFVLRIEDTDLERSTPEAIEAIMDGMNWLSLEWDEGPYYQTKRFDRYNAVIDQMLEEGTAYKCYCSKERLEALREEQMAKGEKPRYDGRCRHSHEHHADDEPCVVRFANPQEGSVVFDDQIRGPIEFSNQELDDLIIRRTDGSPTYNFCVAVDDWDMEITHVIRGEDHINNTPRQINILKALKAPVPVYAHVSMINGDDGKKLSKRHGAVSVMQYRDDGYLPEALLNYLVRLGWSHGDQEIFTREEMIKYFTLNAVSKSASAFNTDKLLWLNHHYINALPPEYVATHLQWHIEQENIDTRNGPQLADLVKLLGERCKTLKEMAQSCRYFYEDFAEFDADAAKKHLRPVARQPLEVVRDKLAAITDWTAENVHHAIQATADELEVGMGKVGMPLRVAVTGAGQSPALDVTVHAIGKTRSIERINKALDFIAERENQQ
B9: gltX V186Q (protein)
chain: B8 chain with A186Q
B10: ftsY M404W (protein)
chain: MAKEKKRGFFSWLGFGQKEQTPEKETEVQNEQPVVEEIVQAQEPVKASEQAVEEQPQAHTEAEAETFAADVVEVTEQVAESEKAQPEAEVVAQPEPVVEETPEPVAIEREELPLPEDVNAEAVSPEEWQAEAETVEIVEAAEEEAAKEEITDEELETALAAEAAEEAVMVVPPAEEEQPVEEIAQEQEKPTKEGFFARLKRSLLKTKENLGSGFISLFRGKKIDDDLFEELEEQLLIADVGVETTRKIITNLTEGASRKQLRDAEALYGLLKEEMGEILAKVDEPLNVEGKAPFVILMVGVNGVGKTTTIGKLARQFEQQGKSVMLAAGDTFRAAAVEQLQVWGQRNNIPVIAQHTGADSASVIFDAIQAAKARNIDVLIADTAGRLQNKSHLMEELKKIVRVWKKLDVEAPHEVMLTIDASTGQNAVSQAKLFHEAVGLTGITLTKLDGTAKGGVIFSVADQFGIPIRYIGVGERIEDLRPFKADDFIEALFARED
B11: gapA F18Q (protein)
chain: MTIKVGINGFGRIGRIVQRAAQKRSDIEIVAINDLLDADYMAYMLKYDSTHGRFDGTVEVKDGHLIVNGKKIRVTAERDPANLKWDEVGVDVVAEATGLFLTDETARKHITAGAKKVVMTGPSKDNTPMFVKGANFDKYAGQDIVSNASCTTNCLAPLAKVINDNFGIIEGLMTTVHATTATQKTVDGPSHKDWRGGRGASQNIIPSSTGAAKAVGKVLPELNGKLTGMAFRVPTPNVSVVDLTVRLEKAATYEQIKAAVKAAAEGEMKGVLGYTEDDVVSTDFNGEVCTSVFDAKAGIALNDNFVKLVSWYDNETGYSNKVLDLIAHISK
B12: gapA M119Q (protein)
chain: B11 chain with Q18F, M119Q

These proteins were tested against Escherichia coli (laboratory strain) (assay: barcode share on antibiotic plates over drug-free plates; higher = less susceptible). Settings: antibiotic: gentamicin; 2× MIC (MIC 0.45 µg/mL).
Experimental: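 A pool of E. coli strains, each edited to carry one amino-acid change in an essential protein, was grown for 48 h on minimal glucose agar with or without antibiotic; strain barcodes were sequenced; mean of two replicates.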

Row | Protein | fold change of barcode share
1 | B1 | < 0.0172
2 | B2 | < 0.0191
3 | B3 | < 0.0203
4 | B4 | < 0.0167
5 | B5 | < 0.0196
6 | B6 | < 0.0151
7 | B7 | < 0.0164
8 | B8 | 0.00937 ± 0.011
9 | B9 | < 0.0036
10 | B10 | < 0.0185
11 | B11 | < 0.0195
12 | B12 | 0.018 ± 0.0096
